# Data: ChEMBL document CHEMBL4888484, “Replenishing the malaria drug discovery pipeline: Screening and hit evaluation of the MMV Hit Generation Library 1 (HGL1) against asexual blood stage Plasmodium falciparum ,using a nano luciferase reporter read-out” (2022)
# About 540 (0.36%) of roughly 150,000 compounds showed an effect of 50% or more. This is one part of the list.
# System: Plasmodium falciparum
# Test: Primary screen in NF54 nanoGlo assay, in single point, at 2uM, 72h; a lower Z score goes with more inhibition
# Assay type: functional, Erythrocyte
# Conditions: timepoint 72 hour
SMILES,% Inhibition [%],Z score
O=C(CCc1c[nH]c2ccccc12)N1CCC[C@H]1c1ccc[nH]1,8,-0.83
O=C(NS(=O)(=O)c1ccsc1)c1cnn2c1CCC2,3,-0.4
Cc1nc(C)c2c(n1)O[C@@H](CN1C(=O)CC3(CCCC3)CC1=O)C2,-4,0.61
CC[C@H](C)NC(=O)Cn1ccc2c(C)nn(C)c2c1=O,-21,2.06
CCCNC(=O)CN1C(=O)CN(C(=O)NCc2ccc(F)cc2)c2ccccc21,-18,2.23
CCOc1ccc(Br)cc1NC(=O)NCCOC,0,0.06
c1ccc2cc(Cn3ccnc3)ccc2c1,1,-0.15
C[C@](O)(CNC(=O)C(=O)Nc1ccc(F)c(F)c1)c1ccc2c(c1)OCO2,-3,0.57
CN(CCc1cn[nH]c1)Cc1cc2n(n1)CCN(Cc1cccc(O)c1)C2,-11,1.99
CC(C)(COc1ncccc1C(F)(F)F)NC(=O)c1cc2n(n1)CCO2,-9,1.48
O=C(NCc1ccoc1)c1cccnc1O,-7,0.62
COc1cc(NC(=O)N(C)CC(F)(F)F)cc(OC)c1C(C)C,-2,0.3
CN(C)C(=O)c1cc(Br)ccc1O,-7,1.36
CCc1nccc(-c2c(-c3ccccc3)ncn2[C@H](C(=O)OC)C2CC2)n1,-7,1.13
C[C@@H](CC(=O)NC1(C(=O)O)CCC1)c1ccccc1,8,-0.76
C[C@H](Cc1cn(C)nn1)NS(=O)(=O)N1CCc2ccccc2C1,-3,0.41
CC(C)(C)[C@H](NC(=O)c1ccc(O)nc1)C(F)(F)F,-7,0.74
O=C(c1ccc2[nH]ccc2c1)N1CCC(Oc2cccc3cccnc23)CC1,-15,2.92
CC[C@@H](C(=O)N1CCc2[nH]c(=O)c(C#N)cc2C1)c1ccccc1,-7,1.12
O=C(Nc1[nH]ncc1-c1ccc2c(c1)OCO2)c1ccncc1Cl,2,-0.16
CC(C)N1C[C@]2(C)CN(C(=O)c3c[nH]c4ccccc34)C[C@](C)(C1)C2O (stereo partly specified),-3,0.56
NC(=O)Cn1cnc(-c2ccccc2)c1-c1cc2c(cc1Cl)OCO2,3,-0.49

SMILES,% Inhibition [%],Z score
NC(=O)[C@H]1CCCN1CCC(=O)NCc1cccs1,-12,1.65
COc1ccc(-n2cnnc2CN2CCN(c3ccc(F)cc3)CC2)cc1,-16,1.5
CCCCCC(=O)Nc1cccc(C)c1C,-7,0.93
c1cc2c(cc1NC1CCCCCCC1)OCO2,-7,0.98
O=C(N[C@H]1CCCOCC1)c1ccc(F)c(Cl)c1,3,-0.54
CC[C@H](NCC(=O)NC1CCCCC1)C(=O)OC,-1,0.18
Cc1ccc(S(=O)(=O)Nc2cnn(-c3ccccc3)n2)c(Br)c1,-15,1.58
c1ccc(-c2nc(Oc3cccnc3)c3ccccc3n2)cc1,4,-0.87
CC(C)(C)N(CC(N)=O)Cc1c(F)cncc1F,-3,0.48
CCCOc1ccc(CN(CCCN(C)C)C(=O)C2CCOCC2)cc1OC,-4,0.55
C#CCCC1(CCC(=O)N2CC[C@@H]2COC)N=N1,6,-0.88
Cc1c(C(=O)N2CCN(C(=O)OC(C)(C)C)C[C@H]2C)cnn1C,6,-1.09
COc1cccc(OCc2nc3c(c(=O)[nH]2)CCNC3)c1,-10,1.96
COC(=O)[C@H]1CCn2c(COc3ccccc3OC)nnc2C1,-5,0.7
CC[C@H](C)NC(=O)C(=O)Nc1ccccc1C,-20,2.63
CCOC(=O)NCCC(=O)NCCC[C@H]1CCCCO1,-4,0.49
CC(C)(C)CC(=O)N1CCC(N[C@H]2CCN(c3ccc(Cl)c(Cl)c3)C2=O)CC1,0,-0.05
CN1CCC2(CC1)CCN(C(=O)Cc1ccccc1OC(F)F)C2,-17,3.27
CCN(c1ccccc1)S(=O)(=O)c1cc(NC(=O)c2cccc(S(=O)(=O)N(C)c3ccc(C)cc3)c2)ccc1Cl,-6,0.95
COc1ccc(/C=C/c2nc(-c3ccc4c(c3)nc(C)c(=O)n4C)no2)cc1,3,-0.41
C[C@@H](CN1CCOCC1)C(=O)N(C)Cc1ccon1,-10,1.86
